Laboratory results published in PMC6919601, “Identification of Plasmodium dipeptidyl aminopeptidase allosteric inhibitors by high throughput screening” (PLoS ONE, 2019).
Several values for one entry are separate records, joined by “and”; a condition that tells them apart may be missing. Equal values may be shown once. Screen size: about 110,000 compounds; about 230 (0.21%) showed an effect of 50% or more. The list shows a part of the results.

Biological target: DPAP1 (Plasmodium falciparum, UniProt Q8IIJ9)
Sequence (Q8IIJ9 whole entry, looked up): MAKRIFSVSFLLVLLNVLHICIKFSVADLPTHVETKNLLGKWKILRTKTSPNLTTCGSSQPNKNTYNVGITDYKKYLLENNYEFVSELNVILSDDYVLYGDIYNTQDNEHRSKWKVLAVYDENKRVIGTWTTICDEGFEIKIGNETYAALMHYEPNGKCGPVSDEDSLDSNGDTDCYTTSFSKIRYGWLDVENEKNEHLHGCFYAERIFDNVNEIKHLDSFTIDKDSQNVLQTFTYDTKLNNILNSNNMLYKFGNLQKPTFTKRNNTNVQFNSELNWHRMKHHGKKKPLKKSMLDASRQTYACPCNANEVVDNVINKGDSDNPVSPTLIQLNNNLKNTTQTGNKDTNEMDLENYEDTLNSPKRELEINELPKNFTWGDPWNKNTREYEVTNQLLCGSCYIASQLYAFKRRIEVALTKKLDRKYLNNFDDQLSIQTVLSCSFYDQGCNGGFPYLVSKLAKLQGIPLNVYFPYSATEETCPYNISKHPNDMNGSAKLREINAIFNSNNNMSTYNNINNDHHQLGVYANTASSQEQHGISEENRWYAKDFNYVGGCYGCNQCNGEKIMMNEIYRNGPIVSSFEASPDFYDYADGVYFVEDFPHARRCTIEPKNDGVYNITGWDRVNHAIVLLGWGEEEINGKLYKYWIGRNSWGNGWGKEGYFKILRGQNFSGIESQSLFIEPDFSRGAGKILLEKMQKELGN
Test: primary screen, percent inhibition; read by cleavage of a fluorogenic dipeptide substrate; higher = more effect of the substance
Parameters: species or system P. falciparum D10 trophozoite lysates; single well
Method: HTS was performed in black 384-well plates. The first and last two columns of each plate contained our negative (DMSO) and positive (10 μM JCP410) controls, and the 20 central columns the test compounds at 10 μM. Compounds were first diluted 50-fold into assay buffer (50 mM sodium acetate, 5 mM MgCl2, 10 mM β-mercaptoethanol, and 0.1% CHAPS, pH 5.5) from a 10 mM DMSO stock plates. One microliter of this 200 μM intermediate stock plate was dispensed into the assay plate. […] After 30 min, the reaction was quenched with 20 μL of 0.5 M acetic acid, and the fluorescent intensity measured at 523 nm (λex = 492 nm) using an Analyst HT multimode plate reader (Molecular Devices).
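Further: 30 min substrate incubation versus DMSO and 10 µM JCP410 controls.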

Compound	% Inhibition @ 10 uM
CCO/C(O)=C1\C(C)=NC2=C(C(=O)c3ccccc32)C1c1ccc(C)cc1 (stereo not shown)	5.55%
O=C(CSCC(=O)Nc1ccc2ccccc2c1)Nc1ccccc1	-1.44%
CCOCCCNC(=O)C(NC(=O)c1cnccn1)c1ccc(C)cc1 (stereo not shown)	-2.04%
CC/N=c1\c(NC(=O)c2cccc(C)c2)c(O)oc2ccccc12	0.454%
CC(C)(C)C1CC2CC(CO)CC(C1)C2O (stereo not shown)	-1.06%
Cc1c(CNC(=O)c2cc(-c3ccccc3)nc3ccc(Br)cc23)cnn1C	-2.9%
O=C(/C=C/c1ccc(Br)cc1)c1ccco1	-7.23%
COc1cc(N2CCCC2)ccc1/C=C1/NC(=O)N(Cc2cccc(C)c2)C1=O	-4.39%
CN1CCCN(Cc2cccc(Cl)c2)CC1	-5.41%
CC(=O)Nc1c(C)ccc(CNC(=O)COc2cc(C)ccc2C)c1C	-6.05%
CCC1CCCCN1CCCNc1nnc2c3ccccc3n(C)c2n1 (stereo not shown)	-2.48%
Cc1cc(C)c(S(=O)(=O)NCC23C=CC(O2)C2C(=O)N(c4ccccc4)C(=O)C23)c(C)c1 (stereo not shown)	1.7%
CC(=O)C1=C(NCCc2nc3ccccc3[nH]2)CCCC1=O	-2.19%
O=C1c2cccc3cccc(c23)C(=O)N1CC1CCCO1 (stereo not shown)	-14.4%
O=C(NCc1ccncc1)c1cccs1	5.06%
COc1ccccc1CCNC1CC(=O)N(c2ccc(C)cc2)C1=O (stereo not shown)	-1.88%
COc1cc(C2C3=C(O)CCCC3=NC(C)=C2C(=O)OCc2ccccc2)cc(Br)c1O (stereo not shown)	7.24%
CCOc1ccc2nc(SC3CCOC3=O)sc2c1 (stereo not shown)	-5.53%
Cc1ccc(CCNC(=O)CCn2nc(C)c3c(C)n(-c4ccccc4)nc3c2=O)cc1	-4.57%
C=CCn1c(COc2cc(C)ccc2C)nc2ccccc21	6.85%
COc1ccc(CCNCc2c(C(=O)O)n(Cc3cc(C)ccc3C)c3ccccc23)cc1OC	-1.44%
CO/C(O)=C1\C(C)=NC2=C(C(=O)CC(C)(C)C2)C1c1cccc(F)c1 (stereo not shown)	-0.807%
CC(C)(C)NC(=O)COc1ccc(CNc2ccc3[nH]c(O)nc3c2)cc1	3.56%
CCOc1cccc2c1Oc1nc(-c3ccc(F)cc3)nc(O)c1C2	-1.06%
N#CCNC(=O)[C@H](COCc1ccccc1)NC(=O)c1ccc(-c2ccccc2Cl)c(Cl)c1	-3.48%

Compound	% Inhibition @ 10 uM
COC(=O)C1CC(OCc2ccccc2)C1 (stereo not shown)	-4.35%
O=c1cccc(-c2cccc3ccccc23)o1	-8.3%
O=C1/C(=C\c2ccccc2[N+](=O)[O-])Sc2ccccc21	0.467%
COc1cc(N2CCCC2)c(OC)cc1/C=C1/NC(=O)N(Cc2ccccc2F)C1=O	5.31%
CCN(CC)CCOC(=O)/C=C(\NC(=O)c1ccccc1)c1ccc(OC)c(OC)c1	3.72%
COc1cc2c(cc1OC)C1=C(c3ccccc3C1)N(C)CC2	8.07%
Cc1oc2ccc(O)c(CN3CCOCC3)c2c1C(=O)NCc1ccccc1	0.486%
CCOc1ccccc1C1C(C#N)=C(N)Oc2[nH]nc(C(C)(C)C)c21 (stereo not shown)	-1.44%
c1ccc2c(c1)N1CCCN=C1C21CCCCC1	-0.744%
Cc1nc2c(c3c1[nH]c1ccccc13)C(=O)CCC2	-3.74%
O=C1/C(=C/c2ccc(F)cc2)CCc2ccccc21	8.9%
CCn1c(=O)c2sccc2n2c(CCCC(=O)NC3CCN(Cc4ccccc4)CC3)nnc12	-7.48%
Cc1c(-c2nsc(NC(=O)c3cccs3)n2)nnn1-c1cc(F)ccc1F	0.747%
CCCc1[nH]nc2c1C(c1cccc(OCC(N)=O)c1)C(C#N)=C(N)O2 (stereo not shown)	-3.63%
COc1ccc(Cl)cc1C1=N/C(=C/c2ccco2)C(=O)O1	4.54%
O=C(Nc1ccc(NS(=O)(=O)c2ccc(Cl)cc2)cc1Cl)c1cc(Cl)ccc1O	1.7%
O=C(Nc1ccccc1)c1ccccc1N1C(=O)c2ccccc2C1=O	-3.12%
COc1ccc(S(=O)(=O)N2CCN(c3ccc(F)cc3)CC2)c(Cl)c1Cl	-3.24%
O=C(O)C1C2C=CC(C2)C1C(=O)Nc1cccnc1 (stereo not shown)	5.52%
CC(C)(C)N(Cc1ccccc1)C(=O)c1ccc(Cl)cc1	-0.216%
CC(Cc1ccccc1)N1CCC(=O)C2=C1CCCC2 (stereo not shown)	2.6%
Cc1nc(OCc2ccccc2)c2ccccc2n1	-3.83%
O=C(Nc1nc2ccc(Cl)cc2s1)C1CCCN(S(=O)(=O)c2c[nH]cn2)C1 (stereo not shown)	-1.89%
Cc1ccc(Nc2nc(-c3ccc(S(=O)(=O)N4CCCCC4)cc3)cs2)cc1Cl	-2.42% and -1.15%
COC(=O)C(Cc1ccccc1)NC(=O)c1ccccc1Br (stereo not shown)	-0.128%

Compound	% Inhibition @ 10 uM
COc1cc(OC)cc(C(=O)Nc2c(C(=O)N3CCN(Cc4ccccc4)CC3)oc3ccccc23)c1	0.623%
COc1ccc(C)cc1-n1c(C)cc(/C=C2/C(=N)N3C(=NC2=O)SN=C3S(=O)(=O)C(C)C)c1C	-3.39%
CCn1c2ccccc2c2cc(CN(C)C3CCN(C)CC3)ccc21	-0.828%
CCSc1nnc(NC(=O)C2=Cc3sc4c(c3CS2)CCCC4)s1	5.54%
O=C(NCCc1ccccc1)C(=O)NC1CCCC1	-3.5%
N#CCNC(=O)[C@H](Cc1nccs1)NC(=O)c1ccc(-c2ccccc2Cl)cc1	-8.81%
Nc1ncn(Cc2ccccc2)c2nc(SCCOc3ccc(Cl)cc3)nc1-2	2.09%
O=C1CC(c2ccc(-c3ccccc3)cc2)C2=C(CCCC2=O)N1 (stereo not shown)	-1.92%
O=C(NCc1ccc2c(c1)OCO2)c1ccc(CN2CC(=O)N3CCCCC3C2=O)cc1 (stereo not shown)	2.22%
Cc1noc(/C=C/N(C)C)c1S(=O)(=O)N1CCN(C2CCCC2)CC1	4.61%
CCOC(=O)N1CCC(NC(=O)CS(=O)Cc2nc(-c3ccc(OC)c(OC)c3)oc2C)CC1 (stereo not shown)	2.37%
COC(=O)C1=CN(CC23CC4CC(CC(C4)C2)C3)C=C(C(=O)OC)C1c1cccc(F)c1	1.03%
c1ccc2[nH]c(C3CCCO3)nc2c1 (stereo not shown)	5.29%
Cc1ccc2onc(CNC(=O)Nc3cccnc3Cl)c2c1	-0.544%
CCN1C(=O)CC(C(=O)Nc2ccccc2)S/C1=N\c1cccc(F)c1 (stereo not shown)	-1.57%
CC(=O)c1cc(-c2ccccc2)n(CC(=O)N2CCC(N(C)CC3CCCO3)CC2)c1C (stereo not shown)	-1.6%
Cc1ccccc1NC(=O)c1cnn(-c2ccccc2)c1C	0.709%
Cn1cc(NC(=O)Nc2nc3ccccc3s2)c2ccccc2c1=O	0.49%
O=C(CNC1CCCCC1)c1ccc(O)c(O)c1	-2.42%
COC(=O)c1c(-c2ccc(Cl)cc2)csc1N	5.2%
Cc1c(C(=O)NC(C)C)sc2ncn(CC(=O)N3CCCCC3C)c(=O)c12 (stereo not shown)	-3.93%
O=C(Nc1nc(-c2ccc(F)cc2F)cs1)C1CCCC1	-1.12%
COc1ccc(Br)cc1CN1CCN(c2ccccn2)CC1	-10.4%
O=S(=O)(c1ccc(-n2cnnn2)cc1)N1CCC(Oc2ccc3c(c2)OCO3)CC1	-1.07%
COc1cc2c(cc1NC(=O)c1nn(C)cc1Br)oc1ccccc12	2.64%

Compound	% Inhibition @ 10 uM
CCOc1ccc(NC(=O)C2c3ccccc3Oc3ccccc32)cc1	-0.988%
CCOc1ccc(C(=O)Nc2cccc(C)n2)cc1Br	-4.39%
CCOc1ccc(/C=C2\N=C(c3ccc(C)cc3)OC2=O)cc1	4.35%
COc1cccc(Cn2nnc(C(=O)NCc3ccc4c(c3)OCO4)c2N)c1	2.72%
O=C(CCc1ccccc1)Nc1ccccc1[N+](=O)[O-]	4.22%
O=C(O)C1CCCCC1C(=O)NCc1cccs1 (stereo not shown)	7.16%
CC1CCCC(NC(=O)Cn2cnc3onc(-c4ccc(Cl)cc4)c3c2=O)C1C (stereo not shown)	-6.13%
O=C(O)c1ccccc1N(Cc1ccccc1)C(=O)c1cccs1	-0.67%
Cc1ccc(-c2noc(CN(C(=O)CC(C)(C)C)C(C)C)n2)cc1	-4.94%
NS(=O)(=O)c1ccc(CCNS(=O)(=O)c2ccccc2)cc1	4.67%
CCc1ccc(OCC(O)CN2CCN(Cc3ccc4c(c3)OCO4)CC2)cc1 (stereo not shown)	9.33%
Cn1nc(C(=O)N2CCC(C(N)=O)CC2)c2c1-c1ccccc1SC2	6.38%
OC[C@H](O)[C@H](O)[C@H](O)[C@H](O)[C@H]1SC(c2ccccc2)=NN1c1ccccc1	-1.32%
O=C1NCCNC(=O)c2ccccc2OCCOCCOc2ccccc21	2.13%
CCOC(=O)c1c(-c2ccccc2)n2c3c(cccc13)SCC2	4.61%
Cc1cccc(CN2CCN(CC(=O)NCc3ccccc3Cl)C2=O)c1	-1.83%
Cc1cc(OCc2nc(-c3cccnc3)no2)cc(C)c1Br	-12.5%
O=C(COc1ccc([N+](=O)[O-])cc1)Oc1ccc(C(=O)c2ccccc2)cc1	19.6%
Cc1ccc(C)c(Cn2c(C)c(CNCC(C)c3ccccc3)c(C(=O)O)c2C)c1 (stereo not shown)	-1.92%
COc1ccc(C(=O)c2nc3ccccc3n2C(C)C)cc1OC	22.7%
CCCC(=O)C1=C(NCCc2ccc(OCC)c(OCC)c2)CCCC1=O	-2.63%
O=c1nc2s/c(=C/c3cccc4ccccc34)c(=O)n2nc1Cc1ccc(F)cc1	2.9%
CC(=O)c1ccc(N2CCN(Cc3ccc(F)c(Br)c3)CC2)cc1	3.85%
COc1ccc(/C=C/c2ccc(OC)c(OC)c2)cc1	-5.46%
CCN(CC)CCN(C)Cc1ccc(F)cc1F	1.29%
